Consider one molecule from patent US20220380476A1, “Use of an anti-CCR7 antibody in combination therapies with a BTK inhibitor and/or BCL2- inhibitor for treating hematological malignancies” (Catapult Therapeutics B.V., priority 2019, published 2022).

One assay has as its system CCR7. The assay is described as follows: Chemotaxis assay (migration) of CLL cells towards CCL19 or CCL21 in Transwell chambers. The format is cell-based, human. The protocol:
PBMCs were isolated by centrifugation on Biocoll Separating Solution density gradient centrifugation (Merck Millipore). PBMC were washed twice with saline solution (Fresenius) and centrifugated at 1200 for 10 minutes. Cells were suspended in RPMI 1640 media (GIBCO) supplemented with 0.1% bovine serum albumin (BSA) at a concentration of 5×10^6 cells/ml. […] Chemotaxis was performed in Transwell chambers (6.5-mm diameter, 10-μm thickens, 5-μm diameter pore size, Costar). Only samples from patients with >90% of tumour cells were included. A total of 5×10^5 cells suspended in RPMI-1640, 0.1% BSA were loaded in the upper chamber and chemokines CCL19 or CCL21 (1 μg/ml, Peprotech) were added to the lower well. After 4 hours at 37° C. 5% CO2, cells in the lower chamber were collected, and stained with anti-CD3-PE (BD Biosciences) and anti-CD5-APC (BD Biosciencies). The migrated cells were counted for 60 seconds in a BD FACSCanto™ II flow cytometer. The percentage of migrated cells (% of input) was calculated according to the following formula: 100×(number of cells in the lower chamber/number of cells loaded in the upper chamber). Once the % of input was calculated, the % of inhibition was estimated by means the following formula: % of inhibition=[(% input without mAb−% input with mAb)×100]/[% input without mAb]. In addition, results are shown as the % of input relative to the maximum effect mediated by each chemokines (CK) which was calculated according to: %input rel. to CK=100×(% input/% input with CK).

In another assay the test system is CLL cells. The assay is described as follows: Antibody-dependent cell-mediated cytotoxicity (ADCC) against CLL cells. The following applies: E:T 10:1. In kind it is cell-based, human. The protocol: ADCC assays were performed as described in SR-HPM-1026. Briefly: target tumour cells were incubated with media alone (RPMI+10% FBS) or in the presence of IC, rituximab, alemtuzumab, or CAP-100 antibodies, at different final concentrations, at 37° C. for 30 min. Unbound antibody was washed off (1800 rpm, 2 minutes/twice) and the cells plated at 10^5 cells/well in p96 U-bottom plates. Human PBMCs from healthy donors were obtained by ficoll density gradient centrifugation. Effector cells were labelled with calcein-UV Cell Tracker (Invitrogen) according to the manufacturer's protocol, and stimulated with recombinant human IL-2 (500 UI/ml, StemCell Technologies). Different effector:target (E:T) ratios were used [10:1 for dose-response assays, and (5:1, 25:1, 50:1) for E:T assays]. After 6 hours, cells were stained with 7AAD, CD3-PE and CD5-APC and analysed by flow cytometry. The percentage of specific lysis in Cell-TrackerCD5^+CD3^− CLL cells was determined by incorporation of 7-AAD (BD Pharmingen) and calculated according to the following formula: % Specific Lysis=100×(ER−SR)/(MR−SR). ER, SR, and MR represent experimental, spontaneous and maximum cell death.

Entries after “also recorded” stand apart in the source; their conditions may differ.

B1: CAP-100: humanized anti-CCR7 antibody: heavy chain variable domain SEQ ID NO: 4, light chain variable domain SEQ ID NO: 5, heavy chain constant region SEQ ID NO: 10 (antibody)
VH: EVQLLESGGGFVKPGGSLKLSCVVSGLTFRDFAMSWVRQTPEKRLVWVATISSGGFYTYYPDSVKGRFTISRDNVRNILYLQMSSLRSEDTAVYYCVRRAYRYDGTGDYSALDYWGTGTTVTVSS
VL: DIQMTQSPSSLSASVGDRVTITCRASQDIGPSLNWYQQKPGKAPKRLIYATSNLDSGVPSRFSGSGSGTDFTLTISSLQPEDFATYYCLQFASSPLTFGQGTKVEIK
chain: [human IgG1 constant region with changes omitted]
modifications: light chain constant region not cited; Humanized VH1 domain; Humanized VK1 domain; synthetic heavy chain constant region of the human allotype G1m (17,1) with a E333A substitution
Turning to B1, the “inhibitory (neutralizing) activity on CCR7-mediated migration” value in the assay on CCR7 (CLL cells from one patient on venetoclax and one ibrutinib patient, 0.01-100 μg/ml) is on record as “neutralizes; also recorded: clear dose-response inhibitory activity”. Moreover, the “migration indices towards CCL19 or CCL21” value in the assay with CCR7 (CLL cells from venetoclax or ibrutinib patient, 10 or 100 μg/ml of antibody) is “reached basal levels”. For the same molecule, in the assay with CCR7 (naïve CLL cells (n=5), ibrutinib 0.1 μM, CAP-100 10 μg/ml), the “effect of single agent on migration induced by CCR7 ligands” value is “reduction of migration to basal levels”. In the assay on CLL cells (CLL cells from patients on ibrutinib, zanabrutinib, venetoclax or ibrutinib R/R, PBMC effectors), the “ADCC activity (specific lysis)” value is recorded as “potent ADCC activity”. Also, the “ADCC activity compared with rituximab” value in the assay on CLL cells (same four groups of patients) is on record as “outperformed rituximab”.
